Experimental data: PubChem BioAssay AID652104 (National Center for Advancing Translational Sciences (NCATS), 2013)
The whole screen tested about 410,000 compounds, of which about 7,200 (1.8%) were called active. Inconclusive means that the source gave no clear call. Such entries were picked first, then a sample of the others. The call rests on the fitted dose curve; in most records, active means well fitted activation curve with a large enough effect; inconclusive means small, poorly fitted or top-dose-only effect, or another doubt; inactive means no such curve, though single readings can be large or run the other way. Potencies of inconclusive entries are left out as doubtful fits. Where a structure was tested more than once in an assay, its records may differ in their call.

Assay: qHTS of TDP-43 Inhibitors; further: nearly all actives have a fitted effect of over 50% in size; on growth rescue (activation): % of control where 0% means no effect
Conditions: TDP-43 expressing yeast growth rescue, BacTiter-Glo, 24 h; growth rescue (activation): at 46.1 µM (top of the series) unless noted
In short: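 Cell-based yeast growth screen: TDP-43 expression induced in galactose, inoculum OD600=0.02 after raffinose pregrowth to mid-log. Read-out BacTiter-Glo luminescence at 24 hr, 30 deg C; inhibition of toxicity seen as signal increase.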
Potency means the concentration at half of the fitted maximal effect; tags describe the fitted curve by direction and shape.

| SMILES | Potency | growth rescue (activation) |
| --- | --- | --- |
| CCn1c(C(=O)N2CCC(C(=O)N3CCN(c4cccc(C)c4C)CC3)CC2)cc2sccc21 | inconclusive [activator, single point] | – |
| Cc1ccsc1C(=O)OCC(=O)NC1CCCCC1C (stereo unspecified) | inconclusive [activator, partial curve] | – |
| Cc1cccc(NC(=O)CSCC(=O)N(C)Cc2ccc3c(c2)OCCO3)c1 | inconclusive [activator, single point] | – |
| Cc1cc(N2CCN(c3ccccc3Cl)CC2)n2cc(-c3ccccc3)nc2n1 | inconclusive [activator, partial curve] | – |
| C=CCOc1ccc(/C=C/C(=O)Nc2ccc(C(=O)NC)cc2)cc1 | inactive | – |
| CCOC(=O)C1CCN(C(=O)COC(=O)c2oc3ccc(OC)cc3c2C)CC1 | inconclusive [activator, partial curve] | – |
| CC(=O)Nc1ccc(Nc2ncnc3c2c(-c2ccccc2)cn3-c2ccccc2)cc1 | inconclusive [activator, partial curve] | – |
| CCOc1nc2ccccc2nc1NS(=O)(=O)c1ccccc1 | inconclusive [activator, single point] | – |
| Cc1cccc(-c2noc(CCCC(=O)NC3CCCCC3)n2)c1 | inconclusive [activator, partial curve] | – |
| CCOc1ccc(C(=O)NCC(c2ccco2)S(=O)(=O)c2ccc(C)cc2)cc1 (stereo unspecified) | inconclusive [activator, single point] | – |
| COc1cccc(CNC(=O)CSc2ccc(-c3sc(-c4ccccc4)nc3C)nn2)c1 | inconclusive [activator, single point] | – |
| O=C(CCC(=O)N1CCN(c2cccc(Cl)c2)CC1)N1CCN(c2ccccc2)CC1 | inconclusive [activator, single point] | – |
| OC(c1cccs1)c1nccc2ccccc12 (stereo unspecified) | inconclusive [activator, partial curve, poor fit] | – |
| CC1CC(C(F)(F)C(F)(F)F)n2nc(C(=O)O)cc2N1 (stereo unspecified) | inconclusive [activator, partial curve] | – |
| NC(=O)CSc1nc2c(oc3ccccc32)c(=O)n1-c1ccccc1F | inconclusive [activator, full curve, poor fit] | – |
| CCOc1cc(C=O)ccc1OCCSc1ccc(Cl)cc1 | inconclusive [activator, single point] | – |
| O=c1[nH]c2ccccc2c2ccccc12 | inconclusive [activator, partial curve] | – |
| CC(OC(=O)C1CC(O)CN1S(=O)(=O)c1ccccc1[N+](=O)[O-])C(=O)N1CCCCC1 (stereo unspecified) | inactive | – |
| CCC(C)c1ccc(NC(=S)NCc2cccs2)cc1 (stereo unspecified) | inactive | – |
| N#Cc1c(NC(=O)c2ccncc2)sc2c1CCC2 | inactive | – |
| N#Cc1c(N)[nH]c2ccc(Sc3ccccc3)cc12 | active: 22.4 µM | – |
| Cc1ccc(NC(=O)Cn2nnnc2-c2ccccc2N)cc1 | inactive | – |
| COc1ccccc1Nc1cc(C)nc2nc(-c3ccccc3)nn12 | active: 12.6 µM | – |
| COc1cc(C=O)ccc1OCCOCCOc1ccccc1Cl | inconclusive [activator, single point] | – |

| SMILES | Potency | growth rescue (activation) |
| --- | --- | --- |
| CCCCOC(=O)c1ccc(NS(=O)(=O)c2c(C)nc3scc(C)n3c2=O)cc1 | inactive | – |
| CCOC(=O)c1cn(CC)c2c(ccc3ccccc32)c1=O | inconclusive [activator, partial curve] | – |
| CCCN(C(=O)Cn1ncc2c(=O)oc3ccccc3c21)c1cccc(C)c1 | inconclusive [activator, single point] | – |
| COc1ccccc1NC(=O)CSc1nnc(C2CCCCC2)o1 | active: 17.8 µM | – |
| ON=C1c2ccccc2-c2ccc(F)cc21 | inconclusive [activator, full curve] | – |
| O=C1CC(SCc2nc3ccccc3[nH]2)C(=O)N1c1ccc(F)c(Cl)c1 (stereo unspecified) | active: 12.6 µM | – |
| Cc1ccnc(Nc2nc(-c3ccccc3)cs2)c1 | inconclusive [activator, partial curve] | – |
| COc1ccc(Nc2cc(C(=O)NCCc3ccccc3)c3ccccc3n2)cc1OC | inconclusive [activator, single point] | – |
| CCCCc1c(-c2ccc(Cl)cc2)ncn1CCc1ccccc1OC | inconclusive [activator, partial curve, poor fit] | – |
| CCc1ccc(-n2nc3cc(C)c(NC(=O)c4cc(Cl)ccc4OC)cc3n2)cc1 | inactive | – |
| Cc1ccc(NC(=O)c2ccc(NC(=O)N3CCSc4ncccc43)cc2)cc1Cl | inactive | – |
| COc1ccc(-c2cc(C)no2)cc1S(=O)(=O)Nc1cccc(C)c1 | inconclusive [activator, single point] | – |
| COc1cccc(N2CCN(C(=O)C3CCCN(S(=O)(=O)c4ccc(Br)s4)C3)CC2)c1 (stereo unspecified) | inactive | – |
| N#C/C(=C\c1cccs1)C(=O)c1ccccc1 | inconclusive [activator, partial curve] | – |
| O=C(Nc1nc(-c2cc(Cl)sc2Cl)cs1)c1ccccc1 | inconclusive [activator, single point] | – |
| O=c1c2ccccc2nnn1Cc1cccc2ccccc12 | active: 12.6 µM | – |
| CSc1ccc(CNCc2c(C(=O)O)c(C)n(Cc3ccc(F)cc3Cl)c2C)cc1 | inactive | – |
| CCCCc1ccc(NC(=O)CC(C)C)cc1 | active: 11.2 µM | – |
| Cc1ccc(Cl)c2sc(N3CCN(C(=O)C4CC4)CC3)nc12 | active: 14.1 µM | – |
| Cc1ccc(/C(O)=C2\C(=O)C(=O)N(CC(C)O)C2c2cccc(F)c2)cc1 (stereo unspecified) | inactive | – |
| COc1ccc(NCc2nc3ccccc3n2CCOc2ccccc2C)cc1 | inconclusive [activator, full curve, poor fit] | – |
| CC(C)(C)c1ccc(OCc2ccc(C(=O)N/N=C3\CC4CC=CC34)cc2)cc1 (stereo unspecified) | inconclusive [activator, partial curve] | – |
| O=C(COc1ccc2c(c1)CCC2)N1CCN(c2cccc(C(F)(F)F)c2)CC1 | inconclusive [activator, partial curve] | – |
| CC(C)c1ccc(/C=C/C(=O)CCC(=O)O)cc1 | inconclusive [activator, single point] | – |

| SMILES | Potency | growth rescue (activation) |
| --- | --- | --- |
| N/C(=N\OC(=O)Cc1cccc2ccccc12)c1ccccn1 | inconclusive [activator, single point] | – |
| O=C(NC1CCCC1)C(c1ccccc1)n1c(-c2cccc3ccccc23)nc2ccccc21 (stereo unspecified) | inconclusive [activator, full curve, poor fit] | – |
| O=C(COC(=O)/C=C/c1cccc(Cl)c1)NCc1cccs1 | active: 20 µM | – |
| CN(c1ncnc(N)c1[N+](=O)[O-])C1CCCCC1 | active: 12.6 µM | – |
| Cc1cc(Nc2ccccc2)n(C(=O)c2ccc(N)cc2)n1 | inconclusive [activator, partial curve] | – |
| COC(=O)c1c(SC)nc2ccccc2c1OCc1cccc(C)c1 | inactive | – |
| O=C(Nc1ccccc1N1CCOCC1)c1ccc2ccccc2c1 | inconclusive [activator, single point] | – |
| Cc1ccc2c(c1)c1c(n2C)-c2[nH]ncc2CC1 | – | inconclusive: -79.1% [activator] |
| COc1ccc(OC)c(/C=C/C(=O)N2CCCc3ccccc32)c1 | inconclusive [activator, single point] | – |
| O=C1C2C3C=CC(CNS(=O)(=O)c4ccccc4[N+](=O)[O-])(O3)C2C(=O)N1c1ccccc1 (stereo unspecified) | inconclusive [activator, partial curve] | – |
| O=C(c1sc2ccccc2c1Cl)N1CCN(c2ccccc2F)CC1 | inconclusive [activator, partial curve] | – |
| COc1ccccc1OCC(=O)NC1CCSc2ccccc21 (stereo unspecified) | inconclusive [activator, single point] | – |
| C=CC[C@@H](CC(=O)N[C@@H](CO)Cc1ccccc1)C(=O)N[C@H](COC(=O)[C@@H](CC=C)Cc1ccc(F)cc1)Cc1ccccc1 | inactive | – |
| COc1ccccc1CCNC(=O)c1cc2c(=O)n3cccc(C)c3nc2n1C | inconclusive [activator, full curve, poor fit] | – |
| NC(=S)N/N=C1/CCSc2ccc3ccccc3c21 | inconclusive [activator, single point] | – |
| Cc1ccc(-c2csc(NC(=O)CSC3=NCCS3)n2)cc1 | active: 7.08 µM | – |
| COc1ccc2c(c1)Cc1sc(NC(=O)c3ccccc3)nc1-2 | inconclusive [activator, partial curve] | – |
| COc1ccc(CN2C(=O)C(CC(=O)NCCCCc3ccccc3)CC(C(=O)N3CCCCCC3)=C2C)cc1 (stereo unspecified) | inconclusive [activator, full curve, poor fit] | – |
| CC(C)(CCl)C(=O)Nc1ccc(Sc2ccc(F)cc2)cc1 | inconclusive [activator, single point] | – |
| CC1CCCC/C1=N\NC(=S)NCCc1ccccc1 (stereo unspecified) | inconclusive [activator, partial curve] | – |
| COC(=O)c1cccc(CN2C(=O)SC(Nc3ccccc3)C2=O)c1 (stereo unspecified) | inconclusive [activator, single point] | – |
| O/N=C/c1ccccc1Oc1ccc(Cl)cc1 | inconclusive [activator, partial curve] | – |
| COc1cccc(COC(=O)c2nn(-c3ccccc3)nc2N)c1 | active: 35.5 µM | – |
